Data reported in patent publication US20220213140A1 (Chugai, published 2022).

B1: R2 (designed binder)
chain: ADNAFNTEQQNAFYEILHLPNLTEEQRNAFIQSLRDDPSKSKKILKEAKKLNKAQAPK
modifications: labeled with Biotin (Lys:Biotin = 12:1)
B2: PN190 (designed binder)
chain: ADNAFNTEQQNAFYEILHLPNLTEEQRNAFIQSLADDPSKSKKILKEAKKLNKAQAPK
modifications: labeled with Biotin (Lys:Biotin = 12:1)
B3: PN131 (designed binder)
chain: ADNAFNHEQQNAFYEILHLPNLTEEQRNAFIQSLRDDPSKSKKILKEAKKLNKAQAPK
modifications: labeled with Biotin (Lys:Biotin = 12:1)
B4: PN194 (designed binder)
chain: ADNAFNTEQQNAFYEILHLPNLTEEQRNAFIQSLEDDPSKSKKILKEAKKLNKAQAPK
modifications: labeled with Biotin (Lys:Biotin = 12:1)
B5: PN133 (designed binder)
chain: ADNAFNTEQQNAFYEILHLPNLTEEQRNAFIQSLHDDPSKSKKILKEAKKLNKAQAPK
modifications: labeled with Biotin (Lys:Biotin = 12:1)
B6: PN2078 (designed binder)
chain: ADNAFNAEQQNAFYEILHLPNLTEEQRNAFIQSLRDDPSKSKKILKEAKKLNKAQAPK
modifications: labeled with Biotin (Lys:Biotin = 12:1)
B7: PN197 (designed binder)
chain: ADNAFNTEQQNAFYEILHLPNLTEEQRNAFIQSLLDDPSKSKKILKEAKKLNKAQAPK
modifications: labeled with Biotin (Lys:Biotin = 12:1)
B8: PN128 (designed binder)
chain: ADNAFNEEQQNAFYEILHLPNLTEEQRNAFIQSLRDDPSKSKKILKEAKKLNKAQAPK
modifications: labeled with Biotin (Lys:Biotin = 12:1)
B9: PN130 (designed binder)
chain: ADNAFNIEQQNAFYEILHLPNLTEEQRNAFIQSLRDDPSKSKKILKEAKKLNKAQAPK
modifications: labeled with Biotin (Lys:Biotin = 12:1)
B10: PN196 (designed binder)
chain: ADNAFNTEQQNAFYEILHLPNLTEEQRNAFIQSLVDDPSKSKKILKEAKKLNKAQAPK
modifications: labeled with Biotin (Lys:Biotin = 12:1)
B11: PN2012 (designed binder)
chain: ADNAFNFEQQNAFYEILHLPNLTEEQRNAFIQSLRDDPSKSKKILKEAKKLNKAQAPK
modifications: labeled with Biotin (Lys:Biotin = 12:1)
B12: PN132 (designed binder)
chain: ADNAFNVEQQNAFYEILHLPNLTEEQRNAFIQSLRDDPSKSKKILKEAKKLNKAQAPK
modifications: labeled with Biotin (Lys:Biotin = 12:1)
B13: PN2011 (designed binder)
chain: ADNAFNYEQQNAFYEILHLPNLTEEQRNAFIQSLRDDPSKSKKILKEAKKLNKAQAPK
modifications: labeled with Biotin (Lys:Biotin = 12:1)
B14: PN127 (designed binder)
chain: ADNAFNQEQQNAFYEILHLPNLTEEQRNAFIQSLRDDPSKSKKILKEAKKLNKAQAPK
modifications: labeled with Biotin (Lys:Biotin = 12:1)
B15: PN2082 (designed binder)
chain: ADNAFNPEQQNAFYEILHLPNLTEEQRNAFIQSLRDDPSKSKKILKEAKKLNKAQAPK
modifications: labeled with Biotin (Lys:Biotin = 12:1)
B16: PN129 (designed binder)
chain: ADNAFNLEQQNAFYEILHLPNLTEEQRNAFIQSLRDDPSKSKKILKEAKKLNKAQAPK
modifications: labeled with Biotin (Lys:Biotin = 12:1)
B17: PN195 (designed binder)
chain: ADNAFNTEQQNAFYEILHLPNLTEEQRNAFIQSLTDDPSKSKKILKEAKKLNKAQAPK
modifications: labeled with Biotin (Lys:Biotin = 12:1)
B18: PN93 (designed binder)
chain: ADNAFNREQQNAFYEILHLPNLTEEQRNAFIQSLRDDPSKSKKILKEAKKLNKAQAPK
modifications: labeled with Biotin (Lys:Biotin = 12:1)

Molecular target: T1, Antibody A
T1 construct: also called pI-modified antibody
T1 sequence (constant, as listed by the source limits assumed): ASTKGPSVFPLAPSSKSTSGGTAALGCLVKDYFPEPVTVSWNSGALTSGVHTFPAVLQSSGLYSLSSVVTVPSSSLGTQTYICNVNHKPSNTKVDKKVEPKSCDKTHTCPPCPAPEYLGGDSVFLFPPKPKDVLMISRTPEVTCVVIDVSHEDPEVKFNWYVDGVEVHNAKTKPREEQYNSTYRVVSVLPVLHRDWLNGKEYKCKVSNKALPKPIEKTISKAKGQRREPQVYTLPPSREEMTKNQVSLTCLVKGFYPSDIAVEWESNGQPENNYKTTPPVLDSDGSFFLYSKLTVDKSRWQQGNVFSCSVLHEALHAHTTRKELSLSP
Experiment: BLI (BLItz), biotinylated ligand monomer on sensor, antibody in solution

| Binder | Kd |
| --- | --- |
| B1 | 539 nM |
| B2 | 91300 nM |
| B3 | 314 nM |
| B4 | 257000 nM |
| B5 | 80100 nM |
| B6 | 258 nM |
| B7 | 120000 nM |
| B8 | 176000 nM |
| B9 | 310 nM |
| B10 | 1100 nM |
| B11 | 152 nM |
| B12 | 309 nM |
| B13 | 102 nM |
| B14 | 265 nM |
| B15 | 1630 nM |
| B16 | 359 nM |
| B17 | 171000 nM |
| B18 | 322 nM |
